Activation data for 86 compounds are collected here from PubChem BioAssay AID1346428 (National Center for Advancing Translational Sciences (NCATS), 2018).

Where “and” joins values, the source holds several entries; their conditions need not be identical. Equal values may be shown once. In all, about 48,000 compounds went through this assay and about 1,200 (2.5%) were called active. Not shown: some 2% with an inconclusive outcome.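 The calls were made as follows: active = activation of at least 60% and not above a set upper limit (about 1 call in 100 departs from these limits); inconclusive = activation of 40% to 60%, or above that upper limit; inactive = activation under 40%.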 This is one part of the list.

UniProt O75388, sequence (O75388 whole entry, looked up): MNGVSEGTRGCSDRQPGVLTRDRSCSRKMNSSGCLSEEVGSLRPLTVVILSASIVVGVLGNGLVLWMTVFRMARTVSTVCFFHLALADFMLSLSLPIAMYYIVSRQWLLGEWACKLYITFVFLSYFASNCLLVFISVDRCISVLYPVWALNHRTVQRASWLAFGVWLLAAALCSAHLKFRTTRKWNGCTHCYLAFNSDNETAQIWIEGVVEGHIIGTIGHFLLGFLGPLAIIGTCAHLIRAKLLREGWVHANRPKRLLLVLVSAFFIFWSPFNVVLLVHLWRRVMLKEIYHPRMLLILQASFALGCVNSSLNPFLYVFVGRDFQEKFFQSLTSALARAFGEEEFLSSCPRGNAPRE

The target of the test is Probable G-protein coupled receptor 32 (Homo sapiens) (UniProt O75388). Kind of test: qHTS for Agonists of Human Resolvin D1 Receptor DRV1. Also: 0% is about no effect. Particulars: CHO-K1 GPR32 beta-arrestin PathHunter luminescence, 90 min; at 76.9 µM; stronger effect = higher value; zero percent set by DMSO-only wells. The method in brief:
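CHO-K1 cells stably expressing ProLink-tagged GPR32 and Enzyme Activator-tagged beta-arrestin were seeded at 2,500 cells/well overnight, exposed to compounds for 90 min at 37 °C, then read by beta-Gal complementation chemiluminescence after 1 h detection reagent.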
As to `CCOc1ccccc1C1N=C(N)Nc2nc3ccccc3n21` (stereo unspecified), the activation is inactive: -7.59%.

For `Cc1nc(N2CCCC2)c2c(C(=O)Nc3ccc(C)c(Cl)c3)c(C)oc2n1`, the activation was inactive: -25.3%.

Take `O=C(CSc1nnc(COc2ccc(Cl)cc2)o1)Nc1ccccc1`: the activation is inactive: -2.89%.

Regarding `CCOc1ccc(C(=O)Nc2c(C(=O)c3ccccc3)oc3ccccc23)cc1`, the activation is inactive: -8.12%.

Consider `COc1ccc(C(CC(=O)Nc2ccc(C)cn2)N2Cc3ccccc3C2=O)cc1OC` (stereo unspecified), for which the activation was inactive: -8.11%.

Consider `COC(=O)c1c(C)oc2ccc(N(C(=O)c3ccncc3)S(=O)(=O)c3cc(C)c(C)cc3C)cc12`, for which the activation was inactive: -1.44%.

With `CCOC(=O)N1CCC(NC(=O)c2ccc3c(c2)N(Cc2cccc(C)c2)C(=O)c2ccccc2S3(=O)=O)CC1`, the activation was inactive: -9.39%.

For `COc1ccc(NC(=O)COCc2cc(-c3ccco3)on2)cc1`, the activation was inactive: -8.87%.

On to `CCCCSc1nnc2n(-c3cccc(C)c3)c(=O)c3c4c(sc3n12)CCCC4`, for which the activation was inactive: -9.97%.

As for `CC(=O)Nc1nonc1-c1nnc(SCc2ccc(F)cc2)n1C`, the activation was inactive: -5.49%.

Turning to `CCOC(=O)C1CCN(C(=O)CSc2n[nH]c(-c3ccccc3)n2)CC1`, the activation is inactive: -10.9%.

Consider `Cc1cccc(OCc2nc(C#N)c(NCc3ccccc3Cl)o2)c1`, for which the activation was inactive: 45.5%.

As for `Cc1ccc2nc(COc3ccc(NC(=O)COc4ccccc4F)cc3)cc(=O)n2c1`, the activation was inactive: -1.49%.

On to `COc1ccc(NC(=O)CSc2nc3ccccc3[nH]2)cc1`, for which the activation is inactive: -10%.

`Fc1ccccc1Oc1ncnc2c1oc1ccccc12`: the activation was inactive: -4.36%.

On to `Clc1ccc(-c2csc(=Nc3ccccc3)n2Cc2ccc3c(c2)OCO3)cc1`, for which the activation was inactive: -6.37%.

As for `CCCCC(CC)CNC(=O)CCCc1nnc2n(CCC)c(=O)c3sccc3n12` (stereo unspecified), the activation is active: 80.4%.

As for `Cc1ccc(NC(=O)CSCn2nnc3c(=O)[nH]c(Cc4ccc(F)cc4)nc32)c(C)c1`, the activation was inactive: -7.57%.

As for `Cc1ccc(C)c(N2CCN(C(=O)Cn3c(=O)c4cccn4c4ccc(F)cc43)CC2)c1`, the activation is inactive: -15%.

`Cc1cc(C)c2nc(NC(=O)c3ccc(S(=O)(=O)N4CCCC4)cc3)sc2c1`: the activation is inactive: 10.8%.

In the case of `COc1ccc(-c2cc3nc(C)c(CCC(=O)N4CCN(c5ccccc5)CC4)c(C)n3n2)c(OC)c1`, the activation was inactive: 2.04%.

On to `Cc1c(CC(=O)NCc2ccccc2)c(=O)oc2c(C)c(O)ccc12`, for which the activation is inactive: 31.7%.

`Cc1cccc(N2CCN(C(=O)c3ccc4c(c3)N(Cc3ccccc3F)C(=O)c3ccccc3S4=O)CC2C)c1` (stereo unspecified): the activation is inactive: 6.83%.

Regarding `COc1cc2c(=O)c(C(=O)c3ccc(C)c(C)c3)cn(Cc3ccccc3)c2cc1OC`, the activation was inactive: 6.72%.

On to `CCOc1cc(C2C(C(=O)OC)=C(C)NC3=C2C(=O)c2ccccc23)c(Br)cc1OC` (stereo unspecified), for which the activation was inactive: -21.3%.

On to `CCOCCCNC(=O)Cn1nc(C)n2c(cc3cc(C)ccc32)c1=O`, for which the activation was inactive: -1.49%.

With `CCCCN(CCCNC(=O)CN1N=C(c2ccccc2)CCC1=O)c1ccccc1`, the activation was inactive: -33.2%.

In the case of `O=C(COc1ccccc1Cl)Nc1nc2c(s1)CCCC2`, the activation was inactive: -21.1%.

For the compound `COc1cccc(C(=O)Nc2cc(-c3cn4cccnc4n3)ccc2C)c1OC`, the activation was inactive: 18%.

Turning to `Cn1ncc(S(=O)(=O)Cc2ccccc2)c(Br)c1=O`, the activation is inactive: -3.54%.

As to `Cc1nc2ccccn2c(=O)c1NC(=O)c1c(F)cccc1F`, the activation was inactive: -4.81%.

With `CC1CCN(C(=O)c2c(NC(=O)c3ccccc3F)sc3c2CCC(C(C)(C)C)C3)CC1` (stereo unspecified), the activation is inactive: -24.7%.

With `Cc1ccc(OCC(=O)Nc2ccccc2C(=O)OCc2cc(=O)n3nc(C4CC4)sc3n2)cc1`, the activation was inactive: -6.6%.

Turning to `O=C(c1cccs1)N(Cc1cccnc1)c1nc2ccc(F)cc2s1`, the activation was inactive: -20.6%.

On to `Cc1ccc(CN(Cc2ccco2)C(=O)COc2c(C)cc(C)cc2C)cc1`, for which the activation is inactive: 8.73%.

On to `CCCN(CCC)CCCNC(=O)C1CCC(CNS(=O)(=O)c2cccc3nsnc23)CC1` (stereo unspecified), for which the activation was inactive: -1.03%.

As to `CNCCCC12CCC(c3ccccc31)c1ccccc12`, the activation is inactive: 43.5% and inactive: -11%.

Take `CCn1cc(S(=O)(=O)c2ccc(OC)cc2)c(=O)c2cc(F)c(N3CCC(C)CC3)cc21`: the activation was inactive: -7.23%.

In the case of `CCCCNS(=O)(=O)c1ccc2nc(-c3cccnc3)cc(C(=O)NCCC)c2c1`, the activation was inactive: -13%.

On to `Oc1ccc(-c2nc3ccccn3c2Nc2ccc3c(c2)OCCO3)cc1`, for which the activation was inactive: -12.4%.

Take `COCCCNC(=O)c1ccc2nc(Cc3ccc(OC)cc3)oc2c1`: the activation is inactive: -10.1%.

For `NCCCCCc1nnc(SCc2ccc(F)cc2)o1`, the activation is inactive: -2.7%.

Regarding `NCCNc1cccc2ccccc12`, the activation is inactive: -12.5%.

For the compound `CCCc1nn2c(=O)cc(COC(=O)c3cccc(NC(=O)CCc4ccccc4)c3)nc2s1`, the activation was inactive: -5.88%.

In the case of `COCCNC(=O)CSc1c2c(nc3cc(Cl)ccc13)CCCC2`, the activation is inactive: -9.55%.

On to `CCOc1ccc(CNC(=O)C2CCN(S(=O)(=O)N3CCCCC3)CC2)cc1`, for which the activation was inactive: 0.0153%.

With `CCOCCCNC(=O)C(c1ccc(OC)cc1)N(Cc1cccs1)C(=O)c1ccccc1O` (stereo unspecified), the activation is inactive: -10.2%.

Turning to `COc1ccc(CCNC(=O)c2cnc3sc(N4CCCCCC4)nn3c2=O)cc1OC`, the activation was inactive: 0.321%.

`CC1=C(C(=O)Nc2cccc(C)c2C)C2(CCCCC2)OC1=O`: the activation is inactive: -19.7%.

For `CC1=C(C(=O)Nc2c(C)cc(C)cc2C)C2(CCN(C(C)C)CC2)OC1=O`, the activation was inactive: -9.46%.

With `CC(C)NC(=O)CSc1nc2ccccc2nc1N1CCCCC1`, the activation is inactive: 12.9%.

Take `COc1ccccc1N1CCN(CCCNC(=O)c2cnn(-c3ccccc3Cl)c2C2CCN(C(=O)OC(C)(C)C)CC2)CC1`: the activation is inactive: -18.9%.

As to `Cc1ccc(Sc2ccc(N3CCCC(C(=O)Nc4ccc(Cl)cc4)C3)nn2)cc1` (stereo unspecified), the activation was inactive: 23.3%.

As for `CC(C)CCN1C(=O)N(c2ccccc2)C(=O)C1CC(=O)Nc1ccc(Cl)cc1` (stereo unspecified), the activation was inactive: -19.9%.

With `COc1cc(OC)c(NC(=O)Nc2nnc(N(C)C3CCCCC3)s2)cc1Cl`, the activation is inactive: 0.158%.

On to `CCOc1cccc2sc(N(Cc3cccnc3)C(=O)c3ccco3)nc12`, for which the activation is inactive: -6.64%.

As to `Cc1ccc(N2CC(NC(=O)Cc3cccs3)CC2=O)cc1` (stereo unspecified), the activation is inactive: -5.37%.

With `COc1ccc(C(c2c(C)n(C)n(-c3ccccc3)c2=O)c2c(C)n(C)n(-c3ccccc3)c2=O)cc1O`, the activation is inactive: -3.81%.

As to `COc1ccc(-c2cc3c(=O)n(CC(=O)Nc4ccccc4C(F)(F)F)ccn3n2)cc1OC`, the activation is inactive: 29.5%.

With `CC1CCN(CC(=O)N2CCCc3c2c(=O)oc2ccc(OCc4ccccc4)cc32)CC1`, the activation was inactive: 19.8%.

With `CC(=O)c1ccc(NC(=O)CN(C)S(=O)(=O)c2cc3c(cc2C)NC(=O)CO3)cc1`, the activation was inactive: -3.18%.

For `Cc1c(C(=O)Nc2ccc(Br)cc2F)oc2ccc(S(=O)(=O)N3CCCCC3)cc12`, the activation was inactive: 4.09%.

Regarding `Cc1ccc(CCNC(=O)c2cc3c(s2)-c2ccccc2OC3)cc1`, the activation was inactive: 8.69%.

For `Cc1cccc(NC(c2cccc(F)c2)c2ccc3ccc(C)nc3c2O)n1` (stereo unspecified), the activation was inactive: -51.3%.

With `NCCNCCNCCN`, the activation was inactive: 3.97%.

On to `CCCn1c(=N)c(C(=O)NC2CCCC2)cc2c(=O)n3cc(C)ccc3nc21`, for which the activation was inactive: -4.65%.

For `CC1CCC(NC(=O)c2ccc3c(c2)N(Cc2ccccc2F)C(=O)c2ccccc2S3)CC1` (stereo unspecified), the activation is inactive: -14.2%.

Consider `CC1CCN(S(=O)(=O)c2ccc3c(c2)N(CC(=O)NCc2ccccc2Cl)C(=O)CS3)CC1`, for which the activation was inactive: -29.3%.

Regarding `Cc1nc2ccc(S(=O)(=O)NC(C(=O)NCc3ccccc3Cl)C(C)C)cc2s1` (stereo unspecified), the activation is inactive: 7.27%.

As for `c1ccc(-c2cc(-c3ccccc3)c3c(n2)-c2ccccc2OC3)cc1`, the activation is inactive: 10.3%.

For the compound `O=S(=O)(Nc1ccc(F)c(C(F)(F)F)c1)c1ccc(N2CCCCS2(=O)=O)cc1`, the activation is inactive: 9.53%.

With `COc1ccc(C2C(=O)N(C3CCC(C)CC3)CC(=O)N2Cc2ccc(C)cc2)cc1OC` (stereo unspecified), the activation was inactive: -29.8%.

`CSc1ncc(Cl)c(C(=O)NCc2ccc(C)cc2)n1`: the activation was inactive: -1.65%.

As for `CCCCNc1ccc(-c2nc(-c3ccccc3)no2)cc1[N+](=O)[O-]`, the activation is inactive: -15%.

Regarding `O=C(Nc1cccc(C(F)(F)F)c1)C1CCCN(S(=O)(=O)c2cccc3nsnc23)C1` (stereo unspecified), the activation is inactive: -3.72%.

For `Cc1ccc2c(CC(=O)N3CCN(c4cccc(Cl)c4)CC3)coc2c1`, the activation is inactive: -24.8%.

As for `Cc1cc(C)cc(NC(=O)Cn2nnc(C(=O)NCCc3ccccc3)c2N)c1`, the activation is inactive: 1.1%.

For the compound `COc1ccc(OC)c(CNS(=O)(=O)c2c(C(=O)N3CCC(C)CC3)c(C)n(C)c2C)c1`, the activation is inactive: -17%.

As to `CCOc1ccc(C(=O)NCCc2sc(-c3ccc(C)cc3)nc2C)cc1`, the activation is inactive: 41.4%.

As to `Cc1ccc(CCNC(=O)c2ccc(CS(=O)(=O)c3ccc(Br)cc3)o2)cc1`, the activation is inactive: 34.8%.

As to `CCOc1ccccc1NC(=O)CSc1c(C)cnc2c1c(=O)n(C)c(=O)n2C`, the activation was inactive: -4.76%.

With `COc1cc(Nc2nc(SCc3ccccc3F)nc3ccccc23)cc(OC)c1`, the activation is inactive: -28.2%.

Turning to `COc1ccc(NC(=O)C2=C(C)Nc3nc(SCc4ccc(C)cc4C)nn3C2c2cccc(OC)c2OC)cc1` (stereo unspecified), the activation was inactive: 11%.

Turning to `CCOc1ccc(CNC(=O)Cn2nc(C)c3nn(-c4ccc(Cl)cc4)c(C)c3c2=O)cc1`, the activation is inactive: -12.8%.

Regarding `COc1cc(-c2ccno2)ccc1S(=O)(=O)N1CCN(c2cccc(Cl)c2)CC1`, the activation was inactive: -4.34%.

As for `Cc1[nH]c(=O)[nH]c(=O)c1S(=O)(=O)Nc1cccc(Cl)c1C`, the activation was inactive: -6.25%.
